Laboratory results: US11542275B2, “Substituted imidazolidin-2-one derivatives as PRMT5 inhibitors” (Aurigene Discovery Technologies Limited, priority 2018, dated 2023)

Target: PRMT5/MEP50 Complex (Homo sapiens (Human), UniProt O14744)
Assay: PRMT5 inhibition based on TR-FRET assay
Assay type: biochemical
Conditions: 32 nM PRMT5:MEP50 complex, 50 nM Histone-H4 peptide, 1 μM SAM, 90 minutes at room temperature
Description: Protein arginine methyltransferase 5 (PRMT5) is a type II arginine methyltransferase that catalyze mono- and symmetric demethylation on arginine residues of histone or non-histone proteins in presence of S-adenosylmethionine (AdoMet or SAM) a cofactor responsible for donating the methyl group. PRMT5 is reported to be overexpressed in several human cancers. To identify compounds that inhibit the PRMT5 and decrease its activity, a TR-FRET based assay has been established. Time-resolved fluorescence resonance energy transfer (TR-FRET) HTS assays are homogeneous proximity assays where the interaction of two dye-labeled binding partners is detected by the energy transfer between a donor and an acceptor dye, and the subsequent light emission by the acceptor dye. PRMT5 catalyzes Histone H4 peptide which is biotin tagged to the Lysine amino acid at carboxyl end, in presence of S-adenosyl-1-methionine (SAM) to methylate the peptide. The antibody specific to mono methylated H4 peptide (H4R3) with Ig conjugate binds to the methylated peptide, indirectly binding to the Europium lanthanide. […]
The compound dilutions were prepared as 7.5% DMSO stock solutions in assay buffer. […] The plates were then read on Victor-3 with Excitation at 340 nm and Emissions collected at 615 and 665 nm in TR-FRET protocol. […]

| SMILES | IC50 [nM] |
| --- | --- |
| CC(C)Oc1cc(-c2ccc(CN3CCN(C[C@H](O)CN4CCc5ccccc5C4)C3=O)cn2)ccn1 [Compound 67, (R)-1-(3-(3,4-dihydroisoquinolin-2(1H)-yl)-2-hydroxypropyl)-3-((2′-isopropoxy-[2,4′-bipyridin]-5-yl)methyl)imidazolidin-2-one] | 59 |
| CC1COCCC1c1ccc(CN2CCN(C[C@H](O)CN3CCc4ccccc4C3)C2=O)nc1 (stereo partly drawn) [Compound 68, 1-((R)-3-(3,4-dihydroisoquinolin-2(1H)-yl)-2-hydroxypropyl)-3-((5-(3-methyltetrahydro-2H-pyran-4-yl)pyridin-2-yl)methyl)imidazolidin-2-one] | 54 |
